{
  "source": "PubChem BioAssay (Tox21)",
  "key": {"[1]": {"test": "qHTS RealTime-Glo MT Cell Viability Assay in HepG2 cells - 0 hour (AID 1224889); also: potency is read from the fitted curve at half-maximal effect; nearly all actives have a fitted effect of over 50% in size", "in_short": "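Cells + NanoLuc/prosubstrate dispensed (600 cells/well) → 5 h at 37 C/5% CO2 → compounds in DMSO transferred → 40 h incubation at 37 C, luminescence read at 0, 8, 16, 24, 32, 40 h.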"}, "[2]": {"test": "Caspase-3/7 induction in HepG2 cells by small molecules, qHTS assay (AID 1346978); also: nearly all actives have a fitted effect of over 15% in size", "in_short": "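Wild-type HepG2 cells, 2,000/well, settled 5 hr at 37 C and 5% CO2, then compound-treated for 17 hr; caspase-3/7 activity read by luminescent Caspase-Glo 3/7 after 30 min at room temperature.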"}, "[3]": {"test": "qHTS assay to test for compound auto fluorescence at 460 nm (blue) in HEK293 cell free culture (AID 720681); also: potency is read from the fitted curve at half-maximal effect", "in_short": "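Compounds were added to cell-free DMEM with 10% FBS and fluorescence read directly. The blue channel used 405 nm excitation and 460 nm emission, with triamterene as the reference fluorophore.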"}, "[4]": {"test": "qHTS assay to identify small molecule HDAC inhibitors - cell viability counter screen (AID 1259365); also: series mostly up to about 92 µM; nearly all actives have a fitted effect of over 50% in size", "in_short": "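Measured quantity is CellTiter-Glo luminescence from wild-type HCT-116 cells after compound incubation of 2hr at 37C, 5% CO2; reagent developed 30min at room temperature.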"}, "[5]": {"test": "Caspase-3/7 induction in CHO-K1 cells by small molecules, qHTS assay (AID 1346980); also: nearly all actives have a fitted effect of over 15% in size", "in_short": "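Wild-type CHO-K1 cells exposed to compounds for 17hr at 37 C, 5% CO2. Caspase-3/7 activity then measured by Caspase-Glo 3/7 luminescence after 30min at room temperature.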"}},
  "note": "Inconclusive results, whose numbers are uncertain, are shown with a selection of clear calls. For some assays here: No potency is given beside an inconclusive call; the fits are too rough. Active and inactive are the calls of the source. Calls follow the shape of the dose curve; as a rule, active = well fitted curve in the direction sought with a large enough effect in the repeat runs; inconclusive = weak or mixed curves; inactive = no such curve, though single readings can be large; an effect the other way counts as inactive or inconclusive. Tags tell the direction and shape of the fitted curve.",
  "data": [
    {"smiles": "CC(C)CCO", "values": [
      {"measurement": "Potency", "setting": "[1]", "result": "inconclusive [cytotoxic, single point]"}
    ]},
    {"smiles": "O=C(O)/C=C\\C(=O)O", "values": [
      {"measurement": "Potency", "setting": "[2]", "result": "inactive"}
    ]},
    {"smiles": "CCCCCC=O", "values": [
      {"measurement": "Potency", "setting": "[3]", "result": "inconclusive [rising, partial curve, poor fit]"}
    ]},
    {"smiles": "CC(=O)c1ccc(O)cc1", "values": [
      {"measurement": "Potency", "setting": "[4]", "result": "inactive"}
    ]},
    {"smiles": "O=Cc1ccccc1Cl", "values": [
      {"measurement": "Potency", "setting": "[5]", "result": "inactive"}
    ]}
  ]
}
